The other results are listed elsewhere or left out. The list includes weakly bound sequences.
biological target: MaxL homodimer (UniProt P61244); assay: universal protein-binding microarray (PBM); details: PBS-based mixture, 10 nM His-tagged protein dimer, 2% milk, 200 ng/uL BSA, 50 ng/uL salmon testes DNA, 0.02% TX-100; detection with Alexa 488 anti-His …; high values mean tight binding; most listed sequences are background and not binding sites; double strand, one strand shown
Chain of UniProt P61244 (P61244 whole entry): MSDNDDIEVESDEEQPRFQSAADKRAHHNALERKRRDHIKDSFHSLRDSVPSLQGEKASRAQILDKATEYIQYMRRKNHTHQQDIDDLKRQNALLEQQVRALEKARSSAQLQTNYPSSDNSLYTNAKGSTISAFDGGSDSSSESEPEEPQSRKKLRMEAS

Row | Sequence | binding signal (normalized occupancy)
1 | ATCAGAAA | 0.0756
2 | TATACCGA | 0.0807
3 | ATTAGGTC | 0.0775
4 | AGAAAGGC | 0.0707
5 | GCTGCCCA | 0.0703
6 | AGCCGATC | 0.0729
7 | AATACTAG | 0.0706
8 | CCACCCTC | 0.0805
9 | AGCCAAAA | 0.0679
10 | CTGCTGCA | 0.0717
11 | GTTAAAAA | 0.0784
12 | CAATGCGC | 0.0788
13 | CAGTCACG | 0.0862
14 | AAGTAGCC | 0.0758
15 | TCAACTCA | 0.0757
16 | CTTTTACA | 0.0823
17 | AGTAACAC | 0.0787
18 | TACGCACA | 0.0789
19 | GGCATCTA | 0.0787
20 | GGCGCTTA | 0.0693
21 | AGTTGTGC | 0.0733
22 | AGTCACGC | 0.0989
23 | AAAGAATC | 0.0771
24 | ACGTTCCG | 0.0739
25 | GTCACATA | 0.0806

Row | Sequence | binding signal (normalized occupancy)
26 | CGTGAGTA | 0.0788
27 | CAGAGGTC | 0.075
28 | GCATGAGA | 0.0947
29 | TAGCTCGA | 0.0723
30 | AAGTCGCT | 0.0684
31 | AGCTTTAA | 0.0676
32 | AGAGGCTA | 0.0745
33 | AGGACAGG | 0.0726
34 | CGCGTCAA | 0.0723
35 | CGCAATGA | 0.0773
36 | ACATATAG | 0.0847
37 | CAAAGTGA | 0.0695
38 | CTACCTAA | 0.0774
39 | TAGATCAA | 0.0749
40 | CGGATCAA | 0.0731
41 | CCGGAGGC | 0.0637
42 | CCCGAGAG | 0.0685
43 | AGCGACTG | 0.0704
44 | CGTTAACG | 0.079
45 | ATATACCA | 0.0951
46 | ACATGATA | 0.0928
47 | GGGCGAGA | 0.0729
48 | GTTATGTA | 0.0821
49 | ATCTTGGA | 0.0766
50 | TCGCGCGA | 0.0803

Row | Sequence | binding signal (normalized occupancy)
51 | AGTTCTAC | 0.0751
52 | GGGAGGCA | 0.0747
53 | GTCCCTAA | 0.0752
54 | AATCTTGA | 0.0791
55 | ACTACTCC | 0.073
56 | CATCATCG | 0.0852
57 | AGACCATG | 0.0878
58 | CTGAATTC | 0.0723
59 | CGCTAACC | 0.0691
60 | GATAACGA | 0.0818
61 | CAAGCCAA | 0.0745
62 | CAGTTCCC | 0.0686
63 | AAATGTCT | 0.0763
64 | AATATGAT | 0.0849
65 | AATGACTG | 0.0771
66 | CAGTCTCC | 0.0696
67 | GCCCAAGA | 0.0685
68 | GATCTAGC | 0.07
69 | CCCAGAGA | 0.0703
70 | GTGATTGA | 0.0802
71 | ATGTGTGG | 0.0891
72 | CTGCCCTC | 0.0714
73 | AGGAGACT | 0.073
74 | ATGAGCTG | 0.074
75 | ACGGACAT | 0.0801

Row | Sequence | binding signal (normalized occupancy)
76 | AAGGAGCT | 0.0694
77 | CGACGGCG | 0.0722
78 | CTGAATTA | 0.0751
79 | ACTTGACA | 0.0819
80 | CTGCTTAA | 0.0703
81 | GGAAAAAC | 0.0727
82 | AATGAAGA | 0.0792
83 | AATTCCCC | 0.078
84 | CAGAGGCA | 0.0697
85 | GAGATGCC | 0.0786
86 | AGAGTAGC | 0.0731
87 | AAGATCTG | 0.077
88 | GTTTATTA | 0.0733
89 | CAGCCTAA | 0.0729
90 | GTCAAGAC | 0.0749
91 | ATGAGAAA | 0.0743
92 | GAATTTAA | 0.0702
93 | ACAATATG | 0.0881
94 | CAATGGTA | 0.0758
95 | GTTGGTCA | 0.0793
96 | AGCGATCA | 0.0717
97 | AATAGGCA | 0.0804
98 | ATGCGTGG | 0.106
99 | ATGACTCA | 0.0787
100 | CTGGATAA | 0.0734

Row | Sequence | binding signal (normalized occupancy)
101 | AAGGCCCT | 0.072
102 | TGAGCTCA | 0.0709
103 | ACTTAGCC | 0.0726
104 | AGGTTAAC | 0.0744
105 | GTGACTGA | 0.0789
106 | CACTTAAA | 0.0743
107 | AGCTGCGG | 0.0673
108 | ACGCACAC | 0.0922
109 | CAAGCCGA | 0.0713
110 | CCTCCCGC | 0.076
111 | GCACATGC | 0.159
112 | ACGTTCTA | 0.0776
113 | CAGGTGGC | 0.0954
114 | GGACTACA | 0.0806
115 | GTAGGACA | 0.0708
116 | ACGTGTCT | 0.0997
117 | CCTTCGGC | 0.0648
118 | CACACCGG | 0.081
119 | CTGCAATC | 0.075
120 | AACCCAAA | 0.0704
121 | GGTATTAA | 0.0775
122 | AACCAGCG | 0.0716
123 | CATCCGAC | 0.075
124 | AACCCGCG | 0.074
125 | AGATATGC | 0.0791

Row | Sequence | binding signal (normalized occupancy)
126 | CGTAGAAG | 0.0721
127 | ATGTCACC | 0.08
128 | AGCAATTG | 0.0755
129 | GCACCCAA | 0.0723
130 | AGCATGTG | 0.164
131 | ACGAAGGG | 0.0698
132 | GTAGCTCA | 0.0764
133 | TACCTCCA | 0.0756
134 | CATTGCGA | 0.0768
135 | GAGCCTCA | 0.0757
136 | GTTGCTCA | 0.0732
137 | GTTTTTAA | 0.0713
138 | AAATGGAC | 0.0759
139 | GGCGTGGA | 0.0968
140 | ATGCCCTC | 0.0793
141 | ACATTGCT | 0.0763
142 | AATCGCCT | 0.0729
143 | GTTCGTCA | 0.0818
144 | CCATTTAC | 0.0773
145 | CAGCCATC | 0.0855
146 | AGAACAAC | 0.0696
147 | ACAATCCC | 0.0814
148 | CCCGGTTC | 0.0725
149 | CGCGGTGA | 0.0732
150 | AACTTAGC | 0.0701

Row | Sequence | binding signal (normalized occupancy)
151 | GCGAGGTA | 0.0769
152 | CCCGACAC | 0.0766
153 | CATCTCTA | 0.0817
154 | TCAACCCA | 0.0727
155 | ACTTGCTC | 0.0749
156 | TCCTGTAA | 0.0741
157 | CCTTGGCG | 0.0694
158 | CCCACACC | 0.0898
159 | ACGCATGC | 0.124
160 | GCCATGAA | 0.0745
161 | CAATACGC | 0.074
162 | AATCAACG | 0.074
163 | GACCTAGA | 0.0723
164 | CCGAGGCA | 0.0758
165 | AATAAAAT | 0.0744
166 | CGAACCCA | 0.074
167 | GTACTTAA | 0.0773
168 | GATTTTCC | 0.0699
169 | CGTCGGTC | 0.0723
170 | CCCCAGAC | 0.072
171 | AGGGGGAA | 0.0821
172 | ACGCGAAA | 0.0695
